The campaign covered roughly 310,000 compounds. About 2,200 (0.71%) showed an effect of 50% or more. Effects have a minus sign here. The list shows a part of the results.

The target in this test is human ether-à-go-go-related gene (hERG) potassium channel (human, UniProt Q12809). The test is described as follows: primary screen, population patch clamp on CHO cells stably expressing hERG.
Sequence of human ether-à-go-go-related gene (hERG) potassium channel (Q12809 whole entry, looked up): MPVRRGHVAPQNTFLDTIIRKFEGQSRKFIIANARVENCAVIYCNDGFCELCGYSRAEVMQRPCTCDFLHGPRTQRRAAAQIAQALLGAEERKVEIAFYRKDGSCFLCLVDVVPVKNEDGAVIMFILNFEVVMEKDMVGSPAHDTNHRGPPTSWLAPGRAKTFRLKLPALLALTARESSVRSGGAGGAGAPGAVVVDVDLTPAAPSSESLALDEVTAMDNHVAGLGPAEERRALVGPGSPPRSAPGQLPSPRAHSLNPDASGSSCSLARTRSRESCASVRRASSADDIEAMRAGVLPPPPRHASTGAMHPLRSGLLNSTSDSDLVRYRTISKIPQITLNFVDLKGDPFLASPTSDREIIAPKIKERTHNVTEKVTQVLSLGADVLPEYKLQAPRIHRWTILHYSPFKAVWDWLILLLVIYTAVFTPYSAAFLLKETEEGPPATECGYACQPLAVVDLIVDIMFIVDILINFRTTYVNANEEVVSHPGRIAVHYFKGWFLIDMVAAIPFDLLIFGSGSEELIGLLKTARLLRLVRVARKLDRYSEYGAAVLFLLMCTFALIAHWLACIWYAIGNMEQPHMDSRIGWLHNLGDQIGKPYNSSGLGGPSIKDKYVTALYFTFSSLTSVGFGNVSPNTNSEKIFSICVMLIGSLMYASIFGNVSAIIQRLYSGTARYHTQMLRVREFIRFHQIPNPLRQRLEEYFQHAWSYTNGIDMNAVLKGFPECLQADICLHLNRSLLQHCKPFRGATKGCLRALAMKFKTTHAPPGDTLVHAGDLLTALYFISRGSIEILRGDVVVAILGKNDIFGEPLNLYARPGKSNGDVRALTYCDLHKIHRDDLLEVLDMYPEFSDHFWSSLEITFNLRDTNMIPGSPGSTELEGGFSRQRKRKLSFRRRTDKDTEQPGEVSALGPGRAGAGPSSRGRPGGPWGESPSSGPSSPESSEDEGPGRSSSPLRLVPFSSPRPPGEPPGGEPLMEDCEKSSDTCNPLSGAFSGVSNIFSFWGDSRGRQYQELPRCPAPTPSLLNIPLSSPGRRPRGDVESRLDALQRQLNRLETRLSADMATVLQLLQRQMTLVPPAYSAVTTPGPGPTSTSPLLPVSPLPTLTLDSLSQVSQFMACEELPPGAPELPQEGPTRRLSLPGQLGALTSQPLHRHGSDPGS
With `CC(=O)Nc1ccc(NS(=O)(=O)c2ccc3c(c2)oc(=O)n3C)cc1`, the “hERG current change (%, negative = inhibition) at 1uM” value is 8.83%.
As for `COCCOC(=O)c1c(NC(=O)CN2CCOCC2)sc(C(N)=O)c1C`, the “hERG current change (%, negative = inhibition) at 1uM” value is 9.13%.
With `Cc1cc(C(=O)N2CCCC(Nc3ccc(C(C)C)cc3)C2)nn1C` (stereo not shown) the figure was 7.33%; with `O=[N+]([O-])/C(N=Nc1ccccc1)=N\Nc1ccccc1`, 15%; with `CCN(CC(=O)Nc1c(F)cccc1F)C(=O)C1CCN(C(=O)c2ccc(F)cc2)CC1`, 8.86%.
Under `Cc1ccc(-n2c(O)c(/C=N/NC(=O)c3ccncc3)c(=O)[nH]c2=O)cc1` stands 2.14%; under `COc1ccc(CCN2CC(C(=O)O)CC2=O)cc1` (stereo not shown), 6.07%.
With `CCN(CC)c1ccc(NC(=O)COc2ccccc2C#N)cc1S(=O)(=O)Nc1ccc(OC)cc1` the figure was 14.6%; with `CC(=O)N1CCN(c2ccc(NC(=O)c3ccc([N+](=O)[O-])o3)cc2Cl)CC1`, 2.62%.
Take `Cl.Fc1ccccc1COc1ccc(Br)cc1CNCC1CCCO1` (stereo not shown): the “hERG current change (%, negative = inhibition) at 1uM” value was -8.9%.
As for `CC(=O)Nc1ncc(Cc2ccc(Cl)cc2Cl)s1`, the “hERG current change (%, negative = inhibition) at 1uM” value came to 8.67%.
Under `CC(=O)c1ccc(NC(=O)CSc2ccc3nnc(-c4cccnc4)n3n2)cc1` stands 8.3%; under `Cc1[nH]c2ccccc2c1CCNCc1ccco1.Cl`, 15.5%.
Under `CCn1c(COc2ccccc2C)nnc1SCC(=O)N1CCCCC1` stands 3.26%.
As to `Cc1[nH]c2ccccc2c1/C=C/c1nc2ccccc2c(=O)n1-c1cccc([N+](=O)[O-])c1`, the “hERG current change (%, negative = inhibition) at 1uM” value was 8.08%.
With `COc1cc(C2C(C(=O)OC(C)C)=C(C)Nc3ncnn32)cc(OC)c1OC` (stereo not shown) the figure was -3.58%; with `COc1ccc(Cl)cc1C(=O)NNC(=S)NC1CCCC1`, -1.02%.
Under `CNc1ccc(/C=C/C(=O)c2ccc(C)cc2)cc1[N+](=O)[O-]` stands 5.9%; under `CCn1c(=O)cc(SCC(=O)N2CCN(C)CC2)c2ccccc21`, 10.4%.
With `Brc1ccc(-c2cnc3n2CCCC3)cc1`, the “hERG current change (%, negative = inhibition) at 1uM” value is recorded as -11.2%.
With `O=[N+]([O-])c1cccc(-n2cccc2/C=N/Nc2nc(N3CCCCC3)nc(N3CCCCC3)n2)c1` the figure was 14.4%.
With `CC1CN(c2oc(-c3cccs3)nc2C#N)CC(C)O1` (stereo not shown) the figure was 4.32%; with `CCOC(=O)C1CCN(C(=O)Cn2nc(C)n3nc(-c4ccc(CC)cc4)cc3c2=O)CC1`, 4.81%.
Under `CC1CCN(C(=O)C2CCN(S(=O)(=O)c3ccc4c(c3)CC(C)N4C(=O)C3CC3)CC2)CC1` (stereo not shown) stands 7.03%.
On to `O=C(O)CC(NC(=O)C1CCCCC1)c1ccc(OC2CCCC2)cc1` (stereo not shown), for which the “hERG current change (%, negative = inhibition) at 1uM” value came out at 7.89%.
For the compound `CCOC(=O)c1c(C)c(C(=O)NCc2ccco2)c(C)n1Cc1ccccc1`, the “hERG current change (%, negative = inhibition) at 1uM” value amounted to 3.4%.
On to `O=C1CN(C(=O)COC(=O)CNS(=O)(=O)c2ccccc2)c2ccccc2N1`, for which the “hERG current change (%, negative = inhibition) at 1uM” value is given as 20.4%.
With `O=C(O)CCn1c(SCc2cc(=O)n3ccccc3n2)nc2ccsc2c1=O` the figure was 7.36%; with `COc1cc(C(=O)Nc2ccc3c(c2)ncn3C(C)(C)C)cc(OC)c1OC`, 10.3%.
`Cc1cccc(-n2ncc3c(N4CCCc5ccccc54)ncnc32)c1`: the “hERG current change (%, negative = inhibition) at 1uM” value is reported as -7.58%.
Under `O=C(/C(N=Nc1cccc(C(F)(F)F)c1)=C(/O)c1cccs1)C(F)(F)F` stands 4.56%.
Under `CCOc1ccc2[nH]c(=O)c(C(c3nnnn3CC3CCCO3)N3CCc4ccccc4C3)cc2c1` (stereo not shown) stands 8.33%.
As for `Fc1ccc(Cn2nnnc2C(c2ccc(F)cc2)N2CC=C(c3ccc(F)cc3)CC2)cc1` (stereo not shown), the “hERG current change (%, negative = inhibition) at 1uM” value was 5.85%.
Take `CC(C)(C)c1ccc(C(=O)NCC(=O)NCc2ccccn2)cc1`: the “hERG current change (%, negative = inhibition) at 1uM” value worked out at 5.51%.
Under `COc1ccc(-c2csc3nc(C)nc(N4CCCCC4)c23)cc1OC` stands 5.05%.
With `COc1ccc(N2CCN(CC(=O)Nc3ccc(C)c(C)c3)CC2)cc1` the figure was 3.67%.
In the case of `CCOC(=O)c1cc(CC)sc1NC(=O)CCC(=O)O`, the “hERG current change (%, negative = inhibition) at 1uM” value is on record as 18.4%.
On to `CCCOCC(O)COc1ccccc1C(=O)N1CCOCC1` (stereo not shown), for which the “hERG current change (%, negative = inhibition) at 1uM” value is 8.61%.
With `CCCCN(C)S(=O)(=O)c1ccc(C(=O)Nc2nnc(-c3ccco3)o2)cc1` the figure was 10.8%; with `COC(=O)CNC(=O)COC(=O)/C=C/c1ccccc1[N+](=O)[O-]`, 2.59%.
With `NNC(=O)c1ccc(COCC(F)(F)F)cc1` the figure was 14.2%; with `CCn1c(O)c(C=NCCN2CCOCC2)sc1=S`, -1.72%.
Under `CC/C(=N\NC(=S)Nc1ccc(OC)cc1)c1ccc(OC(F)F)cc1` stands 7.12%.
As to `COc1ccc(NC(=S)N2CCN(C)CC2)cc1`, the “hERG current change (%, negative = inhibition) at 1uM” value is 9.7%.
Under `CC(=O)Oc1c(Cl)cc(Cl)cc1/C=C/c1ccc2ccccc2n1` stands -0.328%.
Under `O=C(NNC(=O)NC1CCCCC1)NC1CCCCC1` stands 9.73%.
Under `S=C(NCc1ccccc1)NCc1ccccc1` stands 6.82%; under `CCN(Cc1cc(=O)n2ccsc2n1)Cc1nc2ccccc2c(=O)[nH]1`, 8.93%.
Regarding `CC(C(=O)N1CCN(C2c3ccccc3-c3ccccc32)CC1)N1C(=O)c2ccccc2C1=O` (stereo not shown), the “hERG current change (%, negative = inhibition) at 1uM” value stood at 1.9%.
Regarding `CC(OC(=O)CCC1CCCC1)C(=O)Nc1ccccc1[N+](=O)[O-]` (stereo not shown), the “hERG current change (%, negative = inhibition) at 1uM” value is 4.71%.
Under `Cc1c(C#N)c(O)[nH]c(=O)c1N=Nc1ccc(S(N)(=O)=O)cc1` stands 9.28%; under `Nn1c(=O)c2ccccc2n2c(SCc3ccc(C(F)(F)F)cc3)nnc12`, 2.65%; under `NS(=O)(=O)c1ccc(NC(=S)Nc2ccc(Br)c(Cl)c2)cc1`, 16.4%.
With `Cc1ccc(S(=O)(=O)CC(=O)NCc2ccccc2)cc1` the figure was 0.616%; with `CC(C)c1ccc2oc(=O)cc(CN3CCCCC3)c2c1`, 1.6%.
Under `Cc1ccc(/C=N/N=C2/NC(=O)C(CC(=O)Nc3ccccc3)S2)o1` (stereo not shown) stands 0.745%; under `O=C(CCc1nc2ccccc2[nH]1)NCc1ccc2c(c1)OCO2`, -8.38%.
Consider `CN(C)N=C1c2cc(S(=O)(=O)N(C)C)ccc2-c2ccc(S(=O)(=O)N(C)C)cc21`, for which the “hERG current change (%, negative = inhibition) at 1uM” value worked out at 11.9%.
Under `CC(=O)c1ccc(OCc2cc(C(=O)N3CC[C@@H]4CCCC[C@H]4C3)no2)cc1` stands 1.89%; under `COc1ccccc1OCCn1c(=S)[nH]c2ccccc21`, 2.43%; under `COC(=O)c1ccccc1NC(=S)NC(NC(=O)c1ccco1)C(Cl)(Cl)Cl` (stereo not shown), -5.33%.
As for `COCC(C)NCc1cccc(OC)c1OC.O=C(O)C(=O)O` (stereo not shown), the “hERG current change (%, negative = inhibition) at 1uM” value came out at 13.5%.
Under `COCc1cc(=O)n2c([nH]c3ccccc32)c1C#N` stands -6.28%.
Under `CCC(=O)NC1=C(NC(C)c2ccccc2)C(=O)c2ccccc2C1=O` (stereo not shown) stands 13.8%; under `CCNc1nc(OC)nc(SCC(=O)Nc2ccccc2)n1`, 15.6%.
In the case of `COc1ccc(C(OCC2CO2)c2ccc(OC)cc2)cc1` (stereo not shown), the “hERG current change (%, negative = inhibition) at 1uM” value is reported as 6.96%.
Under `Cc1cc(C)c(N(CC(=O)NCc2ccccc2)C(=O)c2csnn2)c(C)c1` stands 7.58%; under `O=C(CC1NCCc2ccccc21)Nc1ccc(Oc2ccccc2)cc1` (stereo not shown), 9.78%.
Under `CCC1CCCCN1CCCNC(=O)CCCNC(=O)Cn1cnc2sc3c(c2c1=O)CCCC3` (stereo not shown) stands 7.49%; under `COc1ccc(CCN2CC(C(=O)N(C)Cc3ccc4nsnc4c3)CCC2=O)cc1` (stereo not shown), -15.9%.
Consider `O=C1CCN(CCc2ccccc2)CCN1[C@H](COc1ccccc1)Cc1ccccc1`, for which the “hERG current change (%, negative = inhibition) at 1uM” value is on record as -60.4%.
`CCC(=O)NC(c1ccccc1Cl)c1c(O)ccc2ccccc12` (stereo not shown): the “hERG current change (%, negative = inhibition) at 1uM” value is listed as -0.883%.
Under `O=C(Nc1cccc(C(F)(F)F)c1)Oc1ccccc1N1CCOCC1` stands 17.4%; under `COc1ccccc1N1CCN(C(=O)COc2cccc3ccccc23)CC1`, 12.1%.
Under `CC(C)C(=O)Nc1c(-c2cccc(Cl)c2)c(=O)c2ccccc2n1C` stands 23.7%; under `COc1ccc2c(c1)OC[C@H]1[C@H]2N2C(=O)c3cc(Cl)ccc3NC(=O)[C@@]2(C)[C@H]1c1ccccc1`, -1.92%.
With `CC(=O)n1cc(N(C(=O)CCl)c2ccc([N+](=O)[O-])cc2)c2ccccc21` the figure was -0.778%; with `COc1ccc(/C=N/NC(=O)c2ccoc2C)cc1O`, 6.72%; with `Cc1[nH]c2ccccc2c1/C=N/Nc1cccc(C(=O)O)c1`, 5.56%.
As for `c1ccc(-c2n[nH]c(-c3ccccc3)c2-c2nc3ccccc3[nH]2)cc1`, the “hERG current change (%, negative = inhibition) at 1uM” value came out at 7.06%.
With `Cc1cc(/C=N\NC(=O)CC(=O)NC2CCCCC2)c(C)n1-c1ccc(Cl)cc1` the figure was 1.8%; with `Cc1cc(C)n(CC(=O)NNC(=O)CCNC(=O)c2ccccc2Cl)n1`, 8.63%; with `CC1CCC(NC(=O)CCNC(=O)c2ccc(Br)cc2)CC1` (stereo not shown), 15.8%.
With `O=C(C1CCCCC1)N(CCN1CCCC1)c1nc2ccccc2s1` the figure was 10.7%; with `Cc1c(Cl)cccc1NC(=O)C(=O)NNC(=O)c1ccccc1F`, 6.21%.
Consider `COc1ccc(C(=O)NC(CCSC)C(=O)NC2CC2)cc1` (stereo not shown), for which the “hERG current change (%, negative = inhibition) at 1uM” value came out at 12.3%.
Under `Nc1nc(SCc2ccc(F)cc2)ns1` stands 3.6%.
In the case of `Cl.O=C(NCCCN1CCOCC1)C(=O)c1c[nH]c2ccccc12`, the “hERG current change (%, negative = inhibition) at 1uM” value worked out at 5.13%.

Values taken from PMC4336329 (PLoS ONE, 2015).
